Test results taken from PubChem BioAssay (NCATS).
Values joined by “and” are separate entries in the source; they are usually repeats but may differ in a detail not shown here. Equal entries are not always repeated. Inconclusive means that the source gave no clear call. Such entries were picked first, then a sample of the others. For part of these data: A potency beside an inconclusive call is a rough fit, not a confirmed value. Active and inactive are the calls of the source. Unless noted, the call rests on the fitted dose curve; in most records, active means well fitted curve in the direction sought with a large enough effect; inconclusive means small, poorly fitted or top-dose-only effect, or another doubt; inactive means no such curve, though single readings can be large; an effect the other way counts as inactive or inconclusive.

What was measured:
[1] = qHTS of pediatric cancer cell lines to identify multiple opportunities for drug repurposing: Primary screen for DAOY cells (AID 1347090); details: DAOY medulloblastoma viability, CellTiter-Glo luminescence, 48 h; activity change, negative = cytotoxic: at 46 µM (top of the series); further: nearly all actives have a fitted effect of over 55% in size; further: potency means the concentration at half of the fitted maximal effect;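 on activity change, negative = cytotoxic: plate controls were DMSO for no effect and bortezomib for full effect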
In short: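 Cell viability, CellTiter-Glo luminescence; 500-1,000 cells/well, 8- or 11-point titration, 48 h compound exposure at 37 degrees C, 5% CO2. Controls: DMSO neutral, bortezomib 2.3 µM final as positive.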

[2] = qHTS of pediatric cancer cell lines to identify multiple opportunities for drug repurposing: Primary screen for SK-N-MC cells (AID 1347093); details: SK-N-MC viability, CellTiter-Glo luminescence, 48 h; activity change, negative = cytotoxic: at 46 µM (top of the series); further: potency means the concentration at half of the fitted maximal effect
In short: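 Metabolically active cells were quantified by ATP-dependent luminescence (CellTiter-Glo, 15 min at room temperature) following 48 h treatment. Cells had been plated at 500-1,000 per well and settled for 5 h beforehand.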

[3] = qHTS of pediatric cancer cell lines to identify multiple opportunities for drug repurposing: Primary screen for BT-12 cells (AID 1347101); further: potency means the concentration at half of the fitted maximal effect; nearly all actives have a fitted effect of over 25% in size
In short: (§1)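 Cells (500-1,000/well) rested 5 h, then received compounds for 48 h; metabolically active cells were measured by CellTiter-Glo luminescence. Final concentrations spanned up to 46 µM (MIPE, 11-point) or 0.59 nM-46 µM (NPC, 8-point) in primary screens, 11-point in follow-ups.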

[4] = qHTS of pediatric cancer cell lines to identify multiple opportunities for drug repurposing: Primary screen for Rh18 cells (AID 1347102); further: potency means the concentration at half of the fitted maximal effect; nearly all actives have a fitted effect of over 65% in size
In short: as §1

[5] = molecular target: Glutathione peroxidase 1 (Homo sapiens) (UniProt P07203); assay: Primary qHTS Assay for Inhibitors of Recombinant Selenoprotein Glutathione Peroxidase 1 (GPX1) (AID 1845191); details: activity, negative = inhibition: at 48.8 µM (top of the series); further: potency means the concentration at half of the fitted maximal effect; nearly all actives have a fitted effect of over 65% in size
In short: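 NADPH consumption tracked by fluorescence at 340/450 nm between t=0 and t=15 min, room temperature. Final mix: 10 nM GPX1, 100 nM glutathione reductase, 1 mM GSH, 0.5 mM NADPH, 0.5 mM cumene hydroperoxide, 0.01% BSA; 30 min compound–enzyme preincubation.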

[6] = test system: UISO; assay: qHTS assay to identify novel small-molecules to repurpose for Merkel cell carcinoma treatment (AID 1296009); details: MCC and control cell lines, CellTiter-Glo viability, 72 h; activity change, negative = cytotoxicity: at 46 µM (top of the series); further: nearly all actives have a fitted effect of over 60% in size; further: potency means the concentration at half of the fitted maximal effect; on activity change, negative = cytotoxicity: on the % scale 0 is the no-effect control and ±100 the full control effect
In short: (§2)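 Cell viability measured by CellTiter-Glo following 72 hr compound treatment at 37 degree celsius, with NPC and MIPE libraries tested in 8- and 11-point concentration series.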

[7] = test system: WaGa; assay: as above; details: MCC and control cell lines, CellTiter-Glo viability, 72 h; series mostly up to 46 µM
In short: as §2

[8] = molecular target: Calcium and integrin-binding protein 1 (Homo sapiens) (UniProt Q99828); assay: Primary qHTS for Identification of Calcium Integrin Binding Protein 1 (CIB1) Competitor (AID 1508620); further: potency means the concentration at half of the fitted maximal effect
In short: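 CIB1-GST (1 uM final) and compound incubated 15 min at room temperature before adding FITC-alphaIIb peptide tracer (100 nM final). Competition for binding read by fluorescence polarization (ex 480, em 540) after another 15 min at room temperature.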

[9] = Primary fluorescence-based thiol-reactive (MSTI) qHTS assay for identification of artifact compounds. (AID 1845221); further: potency means the concentration at half of the fitted maximal effect;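 further: thiol-reactive compounds lower the probe fluorescence signal; nearly all actives have a fitted effect of over 65% in size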
In short: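 Compounds were incubated 1 h at room temperature in the dark with the MSTI probe (4 uM) in PBS pH 7.4, 2% DMSO. Signals were normalized between Acetyl-MSTI and MSTI.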

[10] = qHTS of pediatric cancer cell lines to identify multiple opportunities for drug repurposing: Primary screen for Rh41 cells (AID 1347108); further: nearly all actives have a fitted effect of over 70% in size; further: potency means the concentration at half of the fitted maximal effect;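 on activity change, negative = cytotoxic: luminescence drop marks cytotoxic hits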
In short: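 Readout: CellTiter-Glo luminescence, 48 h treatment. Controls DMSO (neutral) and bortezomib 2.3 µM final (positive). Potency and efficacy taken from primary-screen concentration-response curves.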

[11] = molecular target: Cytochrome P450 2D6 (Homo sapiens) (UniProt P10635); assay: Cytochrome P450 family 2 subfamily D member 6 (CYP2D6) small molecule antagonists: luciferase biochemical (cell-free) qHTS assay (AID 1645840; active means well fitted curve in the direction sought with a large enough effect in the repeat runs; inconclusive means weak or mixed curves; inactive means no such curve, though single readings can be large; an effect the other way counts as inactive or inconclusive; further: potency means the concentration at half of the fitted maximal effect; nearly all actives have a fitted effect of over 55% in size)
In short: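 P450-Glo CYP2D6 system: proluciferin substrate converted by enzyme to luciferin, read by luminescence proportional to activity. Enzyme-substrate mix with compound 10 min at room temperature, then NADPH regeneration 1 h before detection reagent.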

[12] = molecular target: Cytochrome P450 2C9 (Homo sapiens) (UniProt P11712); assay: Cytochrome P450 family 2 subfamily C member 9 (CYP2C9) small molecule antagonists: luciferase biochemical (cell-free) qHTS assay (AID 1645842; active means well fitted curve in the direction sought with a large enough effect in the repeat runs; inconclusive means weak or mixed curves; inactive means no such curve, though single readings can be large; an effect the other way counts as inactive or inconclusive; further: potency means the concentration at half of the fitted maximal effect; nearly all actives have a fitted effect of over 55% in size)
In short: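 P450-Glo CYP2C9 system: proluciferin substrate with enzyme in mix containing 0.4% BSA, 10 min at room temperature, then NADPH regeneration solution added and incubated 1 h at 37C. Detection reagent stopped reaction; luminescence read after 20 min as RLU.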

[13] = test system: MKL-2; assay: qHTS assay to identify novel small-molecules to repurpose for Merkel cell carcinoma treatment (AID 1296009); details: MCC and control cell lines, CellTiter-Glo viability, 72 h; activity change, negative = cytotoxicity: at 46 µM (top of the series); further: nearly all actives have a fitted effect of over 60% in size; further: potency means the concentration at half of the fitted maximal effect; on activity change, negative = cytotoxicity: on the % scale 0 is the no-effect control and ±100 the full control effect
In short: as §2

[14] = qHTS of pediatric cancer cell lines to identify multiple opportunities for drug repurposing: Primary screen for U-2 OS cells (AID 1347096); further: potency means the concentration at half of the fitted maximal effect; nearly all actives have a fitted effect of over 50% in size
In short: as §1

[15] = qHTS of pediatric cancer cell lines to identify multiple opportunities for drug repurposing: Primary screen for Rh30 cells (AID 1347107); further: potency means the concentration at half of the fitted maximal effect; nearly all actives have a fitted effect of over 75% in size
In short: as §1

[16] = Primary qHTS for small molecule stabilizers of the endoplasmic reticulum resident proteome: Secreted ER Calcium Modulated Protein (SERCaMP) assay (AID 1508630); details: SH-SY5Y GLuc-SERCaMP (Gaussia luciferase released on ER calcium loss) secretion, thapsigargin, luminescence; activity change, negative = inhibition: at 38.4 µM (top of the series); further: potency means the concentration at half of the fitted maximal effect
In short: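 The SH-SY5Y reporter protocol was run at 3 concentrations up to 38.3 uM (primary) or 11 concentrations (follow-up): 16 h compound, 100 nM thapsigargin for 4 h, then extracellular luciferase luminescence.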

[17] = Primary redox qHTS assay for identification of artifact compounds. (AID 1845223); further: potency means the concentration at half of the fitted maximal effect
In short: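 Redox-cycling detection via DTT (250 uM final) oxidation coupled to Amplex Red (25 uM)/HRP (250 mU/mL) in HBSS. 15 min preincubation plus 30 min after DTT, room temperature. Ex/Em 525/598 nm; 4-parameter Hill fit against DMSO and 10 uM DA3003.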

[18] = molecular target: Phospholipid hydroperoxide glutathione peroxidase GPX4 (Homo sapiens) (UniProt P36969); assay: Primary qHTS Assay for Inhibitors of Recombinant Selenoprotein Glutathione Peroxidase 4 (GPX4) (AID 1845192); further: potency means the concentration at half of the fitted maximal effect; nearly all actives have a fitted effect of over 65% in size
In short: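 NADPH consumption followed by fluorescence at 340/450 nm, t=0 and after 15 min at room temperature. Reaction started with cumene hydroperoxide (0.5 mM final) after 30 min compound–GPX4 preincubation; final 200 nM GPX4, 100 nM GR, 1 mM GSH, 0.5 mM NADPH.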

[19] = test system: Zika virus NS2B-NS3 protease (linked construct); assay: Primary screen NINDS Rhodamine qHTS for Zika virus inhibitors (AID 1347160); further: on the % scale 0 is the no-effect control and ±100 the full control effect; nearly all actives have a fitted effect of over 55% in size
In short: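 Each compound, titrated, sat 15 min with 25 nM linked protease before 1.5 microM Rhodamine110 substrate went in. Fluorescence gain over the next 15 min, in pH 8.0 Tris with Tween 20, gave Hill-fitted curves.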
Tags describe the fitted curve by direction and shape.

UniProt P36969, sequence (P36969 whole entry, looked up): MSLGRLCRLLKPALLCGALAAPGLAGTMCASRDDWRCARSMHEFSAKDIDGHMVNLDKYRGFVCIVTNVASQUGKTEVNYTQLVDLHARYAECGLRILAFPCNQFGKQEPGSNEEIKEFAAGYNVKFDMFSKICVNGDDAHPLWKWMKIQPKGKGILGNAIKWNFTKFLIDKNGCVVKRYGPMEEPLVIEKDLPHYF
UniProt P10635, sequence (P10635 whole entry, looked up): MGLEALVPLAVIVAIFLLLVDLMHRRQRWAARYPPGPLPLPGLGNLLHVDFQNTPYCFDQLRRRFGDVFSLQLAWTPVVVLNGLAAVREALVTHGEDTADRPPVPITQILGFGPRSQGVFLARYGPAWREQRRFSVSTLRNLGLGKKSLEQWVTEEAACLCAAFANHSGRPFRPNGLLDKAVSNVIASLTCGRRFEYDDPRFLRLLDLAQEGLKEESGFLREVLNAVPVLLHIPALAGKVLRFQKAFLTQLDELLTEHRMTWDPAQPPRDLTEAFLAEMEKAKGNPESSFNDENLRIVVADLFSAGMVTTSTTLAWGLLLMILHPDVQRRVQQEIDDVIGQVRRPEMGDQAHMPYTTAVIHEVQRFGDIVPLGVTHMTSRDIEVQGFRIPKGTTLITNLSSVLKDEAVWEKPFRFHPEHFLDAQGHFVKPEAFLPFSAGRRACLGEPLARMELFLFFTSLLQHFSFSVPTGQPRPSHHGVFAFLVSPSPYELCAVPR
UniProt P07203, sequence (P07203 whole entry, looked up): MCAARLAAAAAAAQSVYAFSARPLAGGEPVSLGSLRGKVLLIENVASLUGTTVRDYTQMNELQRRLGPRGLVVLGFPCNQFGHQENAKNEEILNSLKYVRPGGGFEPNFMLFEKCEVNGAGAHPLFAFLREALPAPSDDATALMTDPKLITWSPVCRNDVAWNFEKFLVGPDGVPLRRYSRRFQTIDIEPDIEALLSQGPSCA
UniProt P11712, sequence (P11712 whole entry, looked up): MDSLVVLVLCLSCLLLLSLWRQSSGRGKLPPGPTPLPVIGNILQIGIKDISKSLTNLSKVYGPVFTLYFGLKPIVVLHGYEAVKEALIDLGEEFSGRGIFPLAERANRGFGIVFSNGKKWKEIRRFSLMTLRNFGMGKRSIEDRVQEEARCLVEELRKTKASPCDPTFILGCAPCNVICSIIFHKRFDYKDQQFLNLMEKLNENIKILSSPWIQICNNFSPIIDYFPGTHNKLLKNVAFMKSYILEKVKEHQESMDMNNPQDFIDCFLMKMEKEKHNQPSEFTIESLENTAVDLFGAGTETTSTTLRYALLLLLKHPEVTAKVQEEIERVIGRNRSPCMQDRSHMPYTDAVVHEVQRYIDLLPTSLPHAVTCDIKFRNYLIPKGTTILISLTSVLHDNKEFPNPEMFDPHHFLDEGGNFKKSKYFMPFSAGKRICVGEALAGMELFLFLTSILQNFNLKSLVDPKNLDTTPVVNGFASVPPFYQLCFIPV
UniProt Q99828, sequence (Q99828 whole entry, looked up): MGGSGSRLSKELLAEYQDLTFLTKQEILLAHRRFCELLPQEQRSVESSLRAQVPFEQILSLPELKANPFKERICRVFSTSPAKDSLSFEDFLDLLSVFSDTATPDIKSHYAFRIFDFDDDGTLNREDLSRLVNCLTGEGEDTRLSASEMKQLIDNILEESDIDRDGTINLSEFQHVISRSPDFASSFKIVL

In the case of `CC[N+](CC)(CC)CCOC(=O)C(C1CCCC1)C1CCCC1`, the Potency [1] was “inactive”, the Potency [2] was inconclusive: 33.5 µM [cytotoxic, single point] and the Potency [3] was inconclusive: 12.3 µM [cytotoxic, partial curve]. For the same compound, the Potency [4] was inconclusive: 18.8 µM [cytotoxic, partial curve], the Potency [5] was inconclusive: 2.86 µM [inhibitor, full curve] and the Potency [6] was inconclusive: 33.5 µM [inhibitor, single point]. For the same compound, the Potency [7] was active: 9.44 µM.

For `COc1cc2c(cc1OC)-c1[nH]nc(Nc3cccc(F)c3)c1C2`, the Potency [8] was inconclusive: 63.1 µM [inhibitor, partial curve, poor fit] and the Potency [5] was inconclusive: 12.8 µM [inhibitor, partial curve].

With `COc1cc(N2CCC(N)CC2)ccc1Nc1ncc(Cl)c(-c2c[nH]c3ccccc23)n1` the Potency [9] was active: 1.89 µM.

In the case of `Cc1ccc(C(=O)Oc2ccc(C(O)CNC(C)(C)C)cc2OC(=O)c2ccc(C)cc2)cc1` (stereo not given), the activity change, negative = cytotoxic [1] was inconclusive: -97.8%, the Potency [3] was active: 6.17 µM and the Potency [10] was “inactive”. For the same compound, the Potency [11] was inconclusive: 13.8 µM [inhibitor, partial curve], the Potency [12] was inconclusive: 19.5 µM [inhibitor, single point] and the Potency [13] was inconclusive: 23.7 µM [inhibitor, partial curve]. The Potency [6] was “inactive” and the Potency [7] was inconclusive: 16.8 µM [inhibitor, single point].

For `CC(C)COCC(CN(Cc1ccccc1)c1ccccc1)N1CCCC1` (stereo not given), the Potency [1] was inconclusive: 33.5 µM [cytotoxic, single point], the Potency [2] was active: 16.8 µM and the Potency [14] was inconclusive: 26.6 µM [cytotoxic, single point]. The Potency [3] was inconclusive: 27.6 µM [cytotoxic, single point], the Potency [4] was inconclusive: 23.7 µM [cytotoxic, single point] and the Potency [15] was inconclusive: 33.5 µM [cytotoxic, single point]. The Potency [10] was inconclusive: 23.7 µM [cytotoxic, single point] and the Potency [16] was inconclusive: 25.1 µM [inhibitor, single point] and inconclusive: 10 µM [inhibitor, partial curve, poor fit].

In the case of `COc1c/c(=C2\C=c3ccccc3=N2)[nH]/c1=C\c1[nH]c(C)cc1C`, the Potency [9] was active: 1.19 µM and the Potency [17] was inconclusive: 23.8 µM [activator, partial curve, poor fit].

In the case of `C=C(C)C(=O)O[C@H]1[C@H]2C(=C)C(=O)O[C@@H]2C[C@@H](C)[C@@H]2O[C@@H]2C(=O)[C@](C)(O)[C@@H]1OC(C)=O`, the Potency [9] was inconclusive: 10.3 µM [inhibitor, partial curve, poor fit].

In the case of `NC(=O)c1cccc2cn(-c3ccc([C@@H]4CCCNC4)cc3)nc12`, the Potency [1] was “inactive”, the Potency [11] was inconclusive: 23.9 µM [inhibitor, partial curve, poor fit] and the Potency [5] was active: 22.7 µM [middle of 4 runs]. The Potency [18] was active: 16.1 µM and inconclusive: 12.8 µM [inhibitor, partial curve] and inconclusive: 35.5 µM [inhibitor, single point], the Potency [13] was inconclusive: 1.87 µM [inhibitor, full curve] and the Potency [6] was inconclusive: 9.35 µM [inhibitor, partial curve].

With `O=[N+]([O-])c1cccc2[nH]c(CNc3nc(N4CCOCC4)nc4c3ncn4-c3ccsc3)nc12` the Potency [9] was active: 10.6 µM and the Potency [17] was “inactive”.

In the case of `C[C@@H]1O[C@@H](O[C@H]2[C@H](OC(=O)[C@]34CCC(C)(C)C[C@H]3C3=CCC5[C@@]6(C)C[C@H](O)[C@H](O[C@@H]7O[C@H](C(=O)O)[C@@H](O)[C@H](O)[C@H]7O)[C@@](C)(CO)C6[C@H](O)C[C@@]5(C)[C@]3(C)C[C@H]4O)O[C@@H](CO)[C@@H]2O)[C@H](O)[C@H](O)[C@H]1O[C@@H]1OC[C@@H](O)[C@H](O[C@H]2OC[C@](O)(CO)[C@H]2O)[C@H]1O` (stereo not given in full), the Potency [17] was inconclusive: 3.57 µM [activator, partial curve].

For `O=C(/C=C/c1ccc(O)cc1)OC[C@H]1O[C@@H](OC(=O)/C=C/c2ccccc2)[C@H](O)[C@@H](O)[C@@H]1O`, the Potency [9] was active: 11.6 µM.

In the case of `O=C(Nc1ccccc1Br)NC1CCN(c2ccc(C(F)(F)F)cn2)C1` (stereo not given), the Potency [11] was active: 10.7 µM, the Potency [12] was inconclusive: 13.5 µM [inhibitor, partial curve] and the Potency [9] was “inactive”. The Potency [17] was “inactive”.

With `CC1=CC(=O)C2C(C)(C)CC(O)CC2(C)C1CO` (stereo not given) the Potency [19] was “inactive” and the Potency [17] was inconclusive: 26.7 µM [activator, partial curve, poor fit].
